Test results as given in ChEMBL document CHEMBL4888484, “Replenishing the malaria drug discovery pipeline: Screening and hit evaluation of the MMV Hit Generation Library 1 (HGL1) against asexual blood stage Plasmodium falciparum ,using a nano luciferase reporter read-out” (2022).
Hit rate of the full screen: of about 150,000 compounds, about 540 (0.36%) showed an effect of 50% or more. The list shows a part of the results.

Test system: Plasmodium falciparum
Experiment: Primary screen in NF54 nanoGlo assay, in single point, at 2uM, 72h; a lower Z score goes with more inhibition
Assay type: functional, Erythrocyte
Settings: timepoint 72 hour

How did the “% Inhibition” value turn out when `Fc1ccccc1-c1noc(N2CCN(c3ccccn3)CC2)n1` was run?
Its value is -24%.

And the Z score?
The Z score was 2.13.

How did the “% Inhibition” value turn out when `CCN1CCC(CC(=O)N[C@H](c2ccccn2)C(F)(F)F)CC1` was run?
Its value is -14%.

What about the Z score of the same molecule?
The Z score was 1.94.

With `CCCN(CCCC(=O)O)C1C2CCOC2C1(C)C` (stereo unspecified) as the molecule, how does the “% Inhibition” value read?
Its value is 1%.

What about the Z score of the same molecule?
The Z score was -0.08.

For `CC1(C)CCc2nnc([C@]3(C)CCCO3)n2C1`, which “% Inhibition” value is on record?
Its value is -10%.

And the Z score?
The Z score was 1.54.

For `Cc1nc(N2CCCC2)c2c(C(=O)Nc3ccc(F)cc3)c(C)oc2n1`, which “% Inhibition” value is on record?
The value was -6%.

And the Z score?
Its Z score is 1.19.

For `Cn1cc(S(=O)(=O)Nc2ccc(-c3ccccc3)cn2)cn1`, which “% Inhibition” value is on record?
The value was -9%.

What about the Z score of the same molecule?
Its Z score is 1.02.

What does the source list for `O=C(c1cc2ccccc2cc1O)N1CCN(Cc2ccc(Cl)s2)CC1`?
% Inhibition: -6%; Z score: 0.77

Which “% Inhibition” value does the source give for `Cc1cccc(CN2CCC[C@@]3(CCN(C(=O)c4cccnc4C)C3)C2)c1` here?
Its value is -18%.

And the Z score?
Its Z score is 2.38.

For `CS(=O)(=O)N1CCc2cc(C(=O)N3CCC(C#N)CC3)ccc21`, which “% Inhibition” value is on record?
Its value is -22%.

What about the Z score of the same molecule?
The Z score was 1.82.

What does the source list for `COCCO[C@@H](C)c1nnc2n1CC(C)(C)CC2`?
% Inhibition: -4%; Z score: 0.79

Which results are given for `Cc1noc(-c2sccc2NC(=O)c2cccc(C(F)(F)F)c2)n1`?
% Inhibition: -5%; Z score: 1.02

Which “% Inhibition” value does the source give for `CC[C@H](NC(=O)CCc1cnn(C)c1)c1ncnn1CC` here?
Its value is -3%.

And the Z score?
The Z score was 0.59.

For `COc1ccc(-n2nc(C)cc2NC(=O)N2CCC(F)(F)CC2)cc1`, which “% Inhibition” value is on record?
The value was 12%.

And the Z score?
The Z score was -2.44.

What does the source list for `Cc1cc(N2C(=O)Cn3cccc3[C@@H]2C(=O)NC2CCC(C)CC2)ccc1Br` (stereo partly specified)?
% Inhibition: -6%; Z score: 0.74

For `C[C@H](NC(=O)CC1CCCCC1)C(=O)N(CC#N)c1ccccc1`, which “% Inhibition” value is on record?
Its value is 2%.

And the Z score?
Its Z score is -0.31.

For `CCc1ccc(CNC(=O)[C@H]2CCS(=O)(=O)C2)s1`, which “% Inhibition” value is on record?
The value was 9%.

And the Z score?
Its Z score is -1.56.

With `Cn1cc(C(=O)Nc2cccc3nsnc23)nn1` as the molecule, how does the “% Inhibition” value read?
The value was -7%.

And the Z score?
Its Z score is 0.99.

For `Cc1cccnc1C[C@H](C)n1cc(-c2cc(O)c3ccccc3n2)nn1`, which “% Inhibition” value is on record?
Its value is 9%.

And the Z score?
The Z score was -1.11.

How did the “% Inhibition” value turn out when `O=C(NC1CCCCCC1)c1csc(C(=O)NC2CCCC2)n1` was run?
Its value is -13%.

And the Z score?
Its Z score is 2.42.

How did the “% Inhibition” value turn out when `Cc1nc(C)c(-c2cc(C(=O)NCc3ccc(F)cc3)[nH]n2)s1` was run?
The value was 17%.

And the Z score?
The Z score was -2.38.

For `O=C(CCn1cncn1)NCC1CN(S(=O)(=O)c2ccccc2)C2CCN1C2` (stereo unspecified), which “% Inhibition” value is on record?
The value was -7%.

And the Z score?
Its Z score is 0.77.

Which “% Inhibition” value does the source give for `O=C(Nc1cccnc1)[C@H](Cc1ccccc1)NC(=O)N1CCCC1` here?
The value was -7%.

And the Z score?
The Z score was 0.87.

With `N#Cc1cc(F)c(N2CC[C@H](O)C2)c(F)c1` as the molecule, how does the “% Inhibition” value read?
The value was -8%.

And the Z score?
The Z score was 1.31.

Which results are given for `CCc1nc(-c2ccc(-c3noc(CCNS(=O)(=O)c4ccc(C)cc4)n3)cc2)cs1`?
% Inhibition: -16%; Z score: 1.63

`O=S(=O)(CCC1CCCCC1)NC[C@H]1CCCO1` was tested. Which “% Inhibition” value did it give?
Its value is 24%.

And the Z score?
Its Z score is -2.73.

Which “% Inhibition” value does the source give for `CN(C)c1nc(CN2Cc3ccccc3C[C@@H]2C(=O)NC2CC2)ns1` here?
Its value is -1%.

What about the Z score of the same molecule?
The Z score was 0.19.

How did the “% Inhibition” value turn out when `Cc1ccc(C(=O)c2oc3ccccc3c2NC(=O)c2cc(-c3ccccc3)on2)cc1F` was run?
The value was 12%.

And the Z score?
The Z score was -1.37.

Which “% Inhibition” value does the source give for `Cc1noc(C)c1CCC(=O)N1CC(C)OC(C)C1` (stereo unspecified) here?
Its value is -1%.

What about the Z score of the same molecule?
The Z score was 0.1.

Which results are given for `CC(C)[C@H]1CCc2[nH]c(=O)c(-c3noc(-c4ccn(C)c(=O)c4)n3)cc2C1`?
% Inhibition: -13%; Z score: 1.61

Which results are given for `CC1CC(NC2CC3(CCCCC3)C2)c2nccn21` (stereo unspecified)?
% Inhibition: 4%; Z score: -0.39

`Cc1ccc(O)c(CN[C@H]2COC[C@H]2n2ccnn2)n1` was tested. Which “% Inhibition” value did it give?
Its value is -4%.

What about the Z score of the same molecule?
The Z score was 0.61.

With `Cc1ccc(-c2ncc(CNCCCN3CCCO[C@@H](C)C3)s2)o1` as the molecule, how does the “% Inhibition” value read?
Its value is -9%.

What about the Z score of the same molecule?
Its Z score is 1.05.

With `CC[C@@H](Cc1ccc(C)cc1)N(C)C(=O)c1cncc(C(=O)O)c1` as the molecule, how does the “% Inhibition” value read?
The value was 11%.

And the Z score?
The Z score was -1.22.

What does the source list for `CC1(C(=O)N2CCC(OCCCc3ccccc3)C2)CCC(=O)NC1` (stereo unspecified)?
% Inhibition: -12%; Z score: 1.72

What does the source list for `Cc1ccsc1[C@@H]1CCCCCN1S(=O)(=O)c1ccc(F)cc1`?
% Inhibition: -12%; Z score: 1.58

What does the source list for `CCn1cc(CN(CCOC)CC(=O)N2CCCCCC2)cn1`?
% Inhibition: -14%; Z score: 2.31

Which results are given for `c1nc(N2CCC(n3cc(C4CC4)nn3)CC2)c2nc[nH]c2n1`?
% Inhibition: -24%; Z score: 2.86

With `Cc1ccsc1[C@H](C)NCc1cccc(COC2CCOCC2)c1` as the molecule, how does the “% Inhibition” value read?
Its value is -1%.

And the Z score?
The Z score was 0.08.

`CCc1ncc(CN2CCn3c(Cc4ccccc4F)nnc3C2)o1` was tested. Which “% Inhibition” value did it give?
Its value is -16%.

What about the Z score of the same molecule?
The Z score was 1.76.

With `CC(C)n1cc(CNC(=O)Cc2cc3ccccc3s2)nn1` as the molecule, how does the “% Inhibition” value read?
The value was -15%.

And the Z score?
Its Z score is 1.9.

How did the “% Inhibition” value turn out when `CCOC(=O)c1noc2ncnc(NC3CCN(Cc4ccccc4)CC3)c12` was run?
The value was 1%.

And the Z score?
Its Z score is -0.25.

For `CS(=O)(=O)N[C@H]1CCCN(Cc2ccn(-c3ccc(F)cc3F)n2)C1`, which “% Inhibition” value is on record?
The value was 1%.

And the Z score?
Its Z score is -0.1.

Which “% Inhibition” value does the source give for `O=C1Nc2ccc(Br)cc2C(=O)N2CCN(C(=O)c3ccccc3)C[C@H]12` here?
The value was 17%.

What about the Z score of the same molecule?
The Z score was -1.94.
